In PubChem BioAssay AID1645882 (National Center for Advancing Translational Sciences (NCATS), 2021):
Screen size: about 16,000 compounds; about 120 (0.75%) were called active. Another 4% or so got no clear call; they are omitted. The call rests on the fitted dose curve; in most records, active means well fitted inhibition curve with a large enough effect; inconclusive means small, poorly fitted or top-dose-only effect; inactive means no such curve, though single readings can be large or run the other way. The list shows a part of the results.

Molecular target: Rap guanine nucleotide exchange factor 3 (Homo sapiens) (UniProt O95398)
Chain of UniProt O95398 (O95398 whole entry, looked up): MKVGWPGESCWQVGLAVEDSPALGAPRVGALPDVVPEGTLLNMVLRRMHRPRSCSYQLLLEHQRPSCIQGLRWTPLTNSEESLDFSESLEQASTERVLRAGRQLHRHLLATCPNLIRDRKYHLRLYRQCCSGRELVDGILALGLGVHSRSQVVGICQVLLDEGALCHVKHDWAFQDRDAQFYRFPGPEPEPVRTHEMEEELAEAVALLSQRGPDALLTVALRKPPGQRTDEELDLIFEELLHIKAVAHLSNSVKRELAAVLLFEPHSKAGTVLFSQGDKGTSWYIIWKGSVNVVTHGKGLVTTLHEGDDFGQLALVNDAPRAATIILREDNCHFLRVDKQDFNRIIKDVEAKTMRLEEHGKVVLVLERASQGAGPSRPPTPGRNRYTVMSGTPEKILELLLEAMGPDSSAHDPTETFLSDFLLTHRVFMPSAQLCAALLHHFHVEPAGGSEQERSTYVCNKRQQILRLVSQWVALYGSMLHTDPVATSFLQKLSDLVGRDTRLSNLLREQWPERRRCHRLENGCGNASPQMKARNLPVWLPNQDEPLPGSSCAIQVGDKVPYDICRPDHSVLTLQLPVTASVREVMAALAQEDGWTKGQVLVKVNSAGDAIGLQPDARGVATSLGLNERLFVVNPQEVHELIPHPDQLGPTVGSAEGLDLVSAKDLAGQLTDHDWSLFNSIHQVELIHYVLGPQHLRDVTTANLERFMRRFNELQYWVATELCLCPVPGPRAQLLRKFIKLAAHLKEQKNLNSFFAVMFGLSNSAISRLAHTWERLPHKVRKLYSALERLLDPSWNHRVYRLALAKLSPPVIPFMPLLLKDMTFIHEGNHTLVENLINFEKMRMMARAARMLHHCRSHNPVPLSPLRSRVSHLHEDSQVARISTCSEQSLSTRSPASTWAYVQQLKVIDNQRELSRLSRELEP
Assay: Validation qHTS for antagonist of cAMP-regulated guanine nucleotide exchange factor 3 (EPAC1);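 further: plate controls were DMSO for no effect and ATA control for full effect; nearly all actives have a fitted effect of over 75% in size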
Details: EPAC1 Rap1B-BODIPY-GDP exchange, fluorescence; series mostly up to 150 µM; activity change, negative = inhibition: at the top concentration
In short: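 EPAC1 (100 nM) mixed with 250 nM RAP1B-BODIPY-GDP and 50 uM GDP; compounds in concentration series, 5 min at room temperature. Fluorescence (ex 480/em 540 nm) read every 5 min for 30 min; normalized to ATA control and DMSO.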

Activity change, negative = inhibition, inactive:
CC1(C)Oc2ccc(C#N)cc2[C@@H](N2CCCC2=O)[C@@H]1O 18.7%
CCCCC(=O)O[C@@]1(C(=O)CO)C(C)CC2C3CCC4=CC(=O)C=C[C@@]4(C)[C@]3(F)C(O)C[C@]21C (some centres not stated) -4.05%
COc1cccc(Cn2c(=O)c(-c3ccc(Cl)cc3)nc3cnc(OC)nc32)c1 5.04%
CNc1ncncc1-c1ccc(C(=O)N(C)C)cc1 20.2%
CCNc1ncc2nc(-c3cccc(C#N)c3)c(=O)n(Cc3cccc(OC)c3)c2n1 -10.8%
CN[C@@H]1[C@@H](O)[C@@H](O[C@@H]2[C@@H](O)[C@H](OC3OC(CN)=CCC3N)[C@@H](N)C[C@H]2N)OC[C@]1(C)O (some centres not stated) 1.86% [at 75.8 µM]
Nc1nc2c(ncn2[C@@H]2O[C@H](CO)[C@@H](O)[C@H]2O)c(=O)[nH]1 -17.4%
CCn1ccnc1C[C@@H]1COc2ccccc2O1 -5.15%
NCCNCCNCCNCCN 7.97%
CN(C)c1ccnc(-c2ccccc2C(F)(F)F)n1 21.3%
CCOC(=O)N1CCN(Cc2ccc3c(c2)CN(C(=O)c2sc(C)nc2C)CCO3)CC1 17.3%
COc1ccccc1CNc1ncncc1-c1ccccc1C 3.8%
Cc1ccccc1-c1cncnc1NCc1cccs1 9.25%
CN1CCc2cc(O)c(O)cc2C(c2ccccc2)C1 (configuration not stated) 5.8% [at 75.8 µM]
COC(=O)[C@@H](c1ccccc1Cl)N1CCc2sccc2C1 19%
CC(=O)OC1C=C[C@]2(C)C(CC(OC(C)=O)[C@@]3(C)C4=CC(=O)OC(c5ccoc5)[C@]4(C)CCC23)C1(C)C (some centres not stated) -21.4%
CCNc1ncc2ncc(=O)n(C3CC3)c2n1 11.4%
CC(=O)SC1CC2=CC(=O)CC[C@@]2(C)C2CC[C@@]3(C)[C@@H](CC[C@@]34CCC(=O)O4)C12 (some centres not stated) -0.645%
C[C@H]1O[C@H](O[C@H]2[C@H](O)[C@@H](O)[C@@H](O[C@H]3[C@H](O)[C@@H](O)[C@H](O)O[C@@H]3CO)O[C@@H]2CO)[C@H](O)[C@@H](O)[C@@H]1N[C@H]1C=C(CO)[C@@H](O)[C@H](O)[C@H]1O 17%
Cc1cc2c(cc1S(N)(=O)=O)S(=O)(=O)CCC2 7.15% [at 75.8 µM]
O=S1(=O)[C@H]2C[C@@H]3C=C[C@@]2(CN1Cc1cccc(Cl)c1)O3 5.85%
COc1ccc(C(=O)N2CCC[C@@]3(CCN(c4cccc(-c5ccccc5)c4)C3)C2)cc1 -4.49%
CSc1nc(C(=O)NCc2nc(-c3cccc(NC(=O)c4ccccn4)c3)oc2C)cs1 2.23%
CN(C)c1ccc(/C=C2\C(=O)/C(=C\c3ccc(N(C)C)cc3)c3ccccc32)cc1 -17.1%
COc1ccccc1CNc1ccnc(-c2c(C)noc2C)n1 4.36%
O=C(NCCN1Cc2ccccc2OC(c2ccsc2)C1)c1ccc2[nH]ccc2c1 (configuration not stated) 5.76%
CCCCCc1ccc(-c2cn(CC3CCCCC3)nn2)cc1 23.4%
Cc1cc(-c2ccnc(-n3ncc(C(=O)N4CCCCC4c4cccnc4)c3C3CC3)n2)c(C)s1 (configuration not stated) 6.63%
COc1ccc(-c2nc3cnc(Nc4cccc(OC)c4)nc3n(C[C@H]3CCCO3)c2=O)cc1 12.5%
CCNc1ncc2nc(-c3cn(C)c4ccccc34)c(=O)n(Cc3cccc(OC)c3)c2n1 17.1%
Cc1ncc2c(c1CNC(=O)/C=C/c1cccs1)CCN(C(=O)c1ccc3c(c1)OCCO3)C2 6.54%
CCN1CCCC1CNC(=O)c1cnn(-c2nccc(-c3cccs3)n2)c1C1CC1 (configuration not stated) 10.6%
O=c1c(-c2ccc(F)cc2)nc2cncnc2n1Cc1ccccc1 -12.8%
N/C(=N\N=C\c1ccc(Cl)cc1)N/N=C/c1ccc(Cl)cc1 9.26%
COc1ccc(NC(=O)N2CC[C@@]3(CCCN(C(=O)c4csnn4)C3)C2)cc1 17.3%
Cc1cnc(CNc2ncncc2-c2ccccc2C(F)(F)F)cn1 35.7%
COc1c(-c2coc3cc4c(cc3c2=O)CC(OC(C)=O)C(C)(C)O4)ccc2c1C=CC(C)(C)O2 (configuration not stated) 14.3%
Cc1ncc2c(c1CNC(=O)c1ccc3c(c1)OCO3)CCN(C(=O)c1ccoc1)C2 19.3%
NC(=O)c1cc[n+](CC2=C(C(=O)O)N3C(=O)[C@@H](NC(=O)[C@@H](c4ccccc4)S(=O)(=O)[O-])[C@H]3SC2)cc1 1.47% [at 75.8 µM]
CC(C)c1ccc2oc3nc(N)c(C(=O)O)cc3c(=O)c2c1 20.1%
O=C(O)/C(=C/c1c(C(=O)O)[nH]c2cc(Cl)cc(Cl)c12)c1ccccc1 29.6% [at 75.8 µM]
COc1ccccc1Oc1coc2cc(O)ccc2c1=O -8.2%
CN(C)c1ccc(CN2CCOc3ccc(CN4CCC(O)(c5cccnc5)CC4)cc3C2)cc1 5.84%
CCn1nc(C)cc1C(=O)NCC1Cc2cccc(-c3cccnc3)c2O1 (configuration not stated) 2.62%
CCC1(C2CCN(Cc3cccnc3)CC2)NC(=O)N(CC2COc3ccccc3O2)C1=O (configuration not stated) 9.36%
C[N+](C)(C)CCCCCCCCCC[N+](C)(C)C
[O-][N+]12CCCc3cccc(c31)CCC2 24.1%
C[C@@](N)(C(=O)O)c1ccc(C(=O)O)cc1
COc1cc2nc(N(C)CCCNC(=O)C3CCCO3)nc(N)c2cc1OC (configuration not stated)
c1ccc(Nc2nc(-c3ccoc3)nc3ccccc23)cc1 0.495%
CCN(CC)c1ccc(C(=C2C=CC(=[N+](CC)CC)C=C2)c2ccccc2)cc1 18.2%
Oc1ccc2ccccc2c1SSc1c(O)ccc2ccccc12 -4.81% [at 75.8 µM]
CCOC(=O)N1CCN(Cc2ccc3c(c2)CN(C(=O)c2ccc4ncccc4c2)CCO3)CC1 9.4%
Clc1ccc(Cn2c(CN3CCCC3)nc3ccccc32)cc1
COc1cc(CN2CCC3(CC2)c2ccccc2[C@@H](NC(=O)c2ccccc2OC)[C@@H]3O)ccc1F 0.285%
COc1ccccc1-c1cncnc1NCCc1cnc[nH]1 -13.3%
O=C(O)/C=C/c1ccc(O)c(O)c1
Cc1cc(CNC(=O)c2cnn(-c3nccc(-c4ccc5c(c4)OCO5)n3)c2C2CC2)on1 18.3%
NC(N)=Nc1ccc(Cl)cc1 11.7%
CC1c2ccccc2CN1NC(=O)c1ccc(Cl)c(S(N)(=O)=O)c1 (configuration not stated) 19.4%
[N-]=[N+]=NCC1OC(n2cnc3c(=O)[nH]c(N)nc32)C(O)C1O (configuration not stated) 8.36%
COCCNc1ncnc2ccc(-c3ccccc3CN(C)C)cc12 19.2%
O=C(c1ccncc1)N1CCC2(CCCN(Cc3ccncc3)C2)CC1 5.71%
CCCCCCCCCCCCCCCC(=O)OC[C@@H](NC(=O)C(Cl)Cl)[C@H](O)c1ccc([N+](=O)[O-])cc1 18%
CN(CCO)C(=O)c1cn(C2CCN(Cc3ccc(C(F)(F)F)cc3)CC2)nn1 2.05%
N#CCCn1c(=O)c(-c2cccc(C#N)c2)nc2cnc(Oc3cccc(Cl)c3)nc21 -2.41%
OC1(c2cccnc2)CCN(Cc2ccc3c(c2)CN(Cc2ccsc2)CCO3)CC1 5.95%
N[C@@H](C(=O)O)c1cc(O)ccc1Cl 4.84%
Cc1cc(C)c2c(C)ccnc2c1 18.1%
Cc1cc2c(c(-c3cnccn3)c1)OC(CNC(=O)c1ccccc1C(F)(F)F)C2 (configuration not stated) 10.4%
COC(=O)C1N[C@@H]([C@@H](NC(=O)COc2ccccc2)C(=O)NCc2ccc(OC)cc2)SC1(C)C (some centres not stated) -5.17%
CN(C)c1ncc2nc(-c3ccccc3)c(=O)n(CCc3ccccc3)c2n1 -1.61%
O=C(Cc1ccc(Cl)cc1)c1c(O)cc(O)cc1O -19.6%
CCOc1ccc2nc(N3CCCN(CCCn4cccn4)CC3)nc(C)c2c1 17.1%
CCCCCCCCCCCCCC[n+]1ccc(C)cc1 10.5%
CN1C[C@@H]2C[C@H]1CN2c1cc2c(cc1F)c(=O)c(C(=O)O)cn2C1CC1 20.9%
N[C@@H](Cc1c[nH]c2ccc(O)cc12)C(=O)O
CN(C)c1ncc2ncc(=O)n(C)c2n1 2.14%
O=C(O)Cc1nn(Cc2ccc(Br)cc2F)c(=O)c2ccccc12 13.9%
CC(=O)c1ccc(C(=O)NCC2Cc3cccc(-c4ncccn4)c3O2)cc1 (configuration not stated) 0.556%
COCCNc1nc(-c2ccoc2)nc2ccccc12 -26.2%
Cn1cccc1C(=O)N1CCC2(CCCN(Cc3ccncc3)C2)CC1 15.2%
COc1ccc(NC(=O)N2CC3(CCN(C(=O)c4cnccn4)CC3)C2)cc1 -0.0013%
OCc1ccc(Cl)cc1Cl 17.7%
CCCCC(CC)CCC(CC(C)C)OS(=O)(=O)O (configuration not stated)
COc1ccc(NC(=O)N2CC[C@@]3(CCCN(C(=O)c4cccc(F)c4)C3)C2)cc1 32.6%
O=C(c1cnccn1)N1CCC[C@@]2(CCN(c3ncccn3)C2)C1 12.7%
COc1ncc2nc(-c3ccccc3)c(=O)n(C[C@H]3CCCO3)c2n1 9.58%
CN1C[C@H](C(=O)N[C@]2(C)O[C@@]3(O)[C@@H]4CCCN4C(=O)[C@H](Cc4ccccc4)N3C2=O)C[C@@H]2c3cccc4[nH]cc(c34)C[C@H]21
CN(Cc1ccco1)c1ncnc2ccc(-c3ccccc3Cl)cc12 -23.5%
COc1ccc(-n2c(=O)c(C)nc3cnc(Nc4ccccc4)nc32)cc1 11%
O=C(O)COCCN1CCN(C(c2ccccc2)c2ccc(Cl)cc2)CC1 (configuration not stated)
N[C@@H]1CONC1=O
COc1ccc2c(=O)c(C)c(-c3ccccc3)oc2c1CN(C)C 20.1%
COc1ccc(-c2nc3cnc(OC)nc3n(C)c2=O)cc1 11.1%
COc1cccc(Cn2c(=O)c(-c3cn(C)c4ccccc34)nc3cncnc32)c1 1.19%
Cn1c(=O)c(-c2ccccc2)nc2cnc(OCc3ccccc3)nc21 6.83%
COCCn1c(=O)c(-c2cn(C)c3ccccc23)nc2cnc(N3CCOCC3)nc21 4.28%
CC(C)N=c1cc2n(-c3ccc(Cl)cc3)c3ccccc3nc-2cc1Nc1ccc(Cl)cc1 15.3% [at 75.8 µM]
COCC(=O)N1CCC[C@@]2(CCN(Cc3ccc(C#N)cc3)C2)C1 9.95%
COCCNc1cc(-c2ccccc2C(F)(F)F)ncn1 25.6%
O=C(c1ccco1)N1CCC2(CCCN(c3ccncc3)C2)CC1 15.8%
